Screen size: about 310,000 compounds; about 2,200 (0.71%) showed an effect of 50% or more. The effect is printed as a negative number. Some of the results follow.
Target: human ether-à-go-go-related gene (hERG) potassium channel (human, UniProt Q12809)
Assay: primary screen, population patch clamp on CHO cells stably expressing hERG

human ether-à-go-go-related gene (hERG) potassium channel, sequence (Q12809 whole entry, looked up): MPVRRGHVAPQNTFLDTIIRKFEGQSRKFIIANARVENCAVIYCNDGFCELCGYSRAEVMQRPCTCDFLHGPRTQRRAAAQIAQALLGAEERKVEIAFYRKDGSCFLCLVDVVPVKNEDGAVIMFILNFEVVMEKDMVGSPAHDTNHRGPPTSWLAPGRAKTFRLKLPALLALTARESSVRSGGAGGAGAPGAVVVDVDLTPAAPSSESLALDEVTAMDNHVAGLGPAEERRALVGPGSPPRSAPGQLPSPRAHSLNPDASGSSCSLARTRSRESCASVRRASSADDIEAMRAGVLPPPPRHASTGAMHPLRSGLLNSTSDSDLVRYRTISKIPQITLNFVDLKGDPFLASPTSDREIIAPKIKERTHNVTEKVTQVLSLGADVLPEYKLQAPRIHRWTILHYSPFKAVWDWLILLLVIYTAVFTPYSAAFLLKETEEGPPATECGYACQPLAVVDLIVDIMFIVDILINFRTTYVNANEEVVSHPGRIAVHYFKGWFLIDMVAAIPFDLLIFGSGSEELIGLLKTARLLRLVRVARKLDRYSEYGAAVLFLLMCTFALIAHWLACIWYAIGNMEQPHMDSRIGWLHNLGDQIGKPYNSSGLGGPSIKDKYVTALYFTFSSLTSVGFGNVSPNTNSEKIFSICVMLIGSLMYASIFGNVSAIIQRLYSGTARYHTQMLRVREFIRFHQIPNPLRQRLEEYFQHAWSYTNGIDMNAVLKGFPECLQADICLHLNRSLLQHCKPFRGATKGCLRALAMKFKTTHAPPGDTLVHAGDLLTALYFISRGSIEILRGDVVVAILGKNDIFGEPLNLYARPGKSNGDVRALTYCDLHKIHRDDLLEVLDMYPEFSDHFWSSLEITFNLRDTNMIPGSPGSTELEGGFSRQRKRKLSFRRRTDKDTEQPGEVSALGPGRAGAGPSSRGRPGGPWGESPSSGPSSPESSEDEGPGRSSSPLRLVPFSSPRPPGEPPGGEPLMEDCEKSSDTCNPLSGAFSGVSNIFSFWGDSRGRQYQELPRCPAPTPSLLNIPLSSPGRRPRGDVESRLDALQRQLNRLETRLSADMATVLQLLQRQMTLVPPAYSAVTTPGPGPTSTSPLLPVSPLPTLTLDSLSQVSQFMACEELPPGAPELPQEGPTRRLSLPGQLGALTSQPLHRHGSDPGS

Compound | hERG current change (%, negative = inhibition) at 1uM [%]
Cc1ccc2nc(SCC(=O)c3ccc(Cl)s3)[nH]c2c1 | 15.9
COc1cccc(C2C([N+](=O)[O-])=C(N)Oc3c2c(=O)oc2ccccc32)c1 (stereo not drawn) | 11.1
C=C(C)C(=O)Nc1cccc(C2=NOC3(C2)C[C@H](C(N)=O)N(C(=O)CC)C3)c1 (stereo partly drawn) | 5.87
Cc1nn(C)c(Cl)c1NC(=O)OCc1ccc(Cl)cc1Cl | 5.22
CCOC(=O)C(=NCCOC)NNc1cc(Cl)ccc1Cl | -1.87
C/C(CS(=O)(=O)c1ccc(Cl)c(Cl)c1)=N/NC(N)=S | 5.79
Fc1ccc(-c2nnn(Cc3ccc(F)cc3Cl)n2)cc1 | 12.6
Cc1ccc(Sc2ncccc2C(=O)NCC(c2ccc(F)cc2)N2CCOCC2)c(C)c1 (stereo not drawn) | 3.73
COc1ccc(OC)c(-c2cc(C(=O)Nc3ccccc3C(N)=O)c3ccccc3n2)c1 | 5.39
O=C(Cc1cccs1)N1CCN=C1SCc1ccc(F)cc1 | 8.19
Oc1ccccc1/C=N/n1c(-c2ccccc2)n[nH]c1=S | 7.98
Cc1cccc(C)c1NC(=O)c1cnccn1 | 14.4
CC(=O)c1ccccc1NC(=O)CSc1nnc(Cc2csc(C)n2)o1 | 16.6
CCCc1[nH]nc2c1C(c1ccc(OC)c(Cn3nc(C)c(Br)c3C)c1)C(C#N)=C(N)O2 (stereo not drawn) | -3.09
COc1cc(/C=N/n2cnnc2)ccc1OC(=O)c1ccco1 | 1.56
CCOC(=O)C1CCN(C(=O)CCc2ccccc2)CC1 | 7.76
CCCOc1ccccc1C(=O)NC(CO)C(=O)O (stereo not drawn) | 17
CCCN(C(=O)c1ccco1)c1nnc(-c2cccc(C)c2)s1 | 8.37
C=CCNC(=O)CSc1n[nH]c(-c2cc(Cl)ccc2OC)n1 | 14.4
CC(C)(C)C(=O)CSc1ccc(S(=O)(=O)N2CCN(Cc3ccccc3)CC2)cn1 | 8.75
Cc1cc(NC(=O)COC(=O)C2CCCN2C(=O)c2cccs2)no1 (stereo not drawn) | 1.51
CC[C@@]12C(=O)N(c3cccc(Br)c3)C(=O)N1[C@H](c1cccc(C)c1)[C@@H]1C(=O)N(Cc3ccccc3)C(=O)[C@@H]12 | 15.2
COc1ccc(C)cc1NC(=O)C(Sc1nnnn1C)c1ccccc1 (stereo not drawn) | 13.7
COc1cc(/C=C2/C(=N)N3C(=NC2=O)SN=C3S(C)(=O)=O)ccc1OS(=O)(=O)c1ccc(C)cc1 | 13.5
CN1C(=O)C2C(c3ccc(N(C)C)cc3)NN(Cc3ccccc3)C2C1=O (stereo not drawn) | 10.9
O=C(CSc1ccc2nnc(CCNC(=O)c3ccccc3)n2n1)NCc1ccco1 | 7.6
COc1ccc(C2/C=C\CN(C(=O)Nc3ccccc3-c3ccccc3)CC(=O)N2Cc2ccc(F)cc2)cc1 (stereo not drawn) | 17

Compound | hERG current change (%, negative = inhibition) at 1uM [%]
CCOc1cc(/C=C2/SC(=S)N(CC3CCCO3)C2=O)ccc1O (stereo not drawn) | 4.38
O=c1oc(C2(O)CCCCC2)cc2ccc(/C=C/c3ccc(F)cc3)cc12 | 14.5
CC(=O)Nc1c(C(=O)Nc2ccc3c(c2)OCO3)oc2ccccc12 | 18.3
COc1ccc(/C=C2\SC(=O)N(CCNC(=O)C3=COCCO3)C2=O)cc1 | 13.9
Cn1c(=O)[nH]c(=O)c2c1nc(N1CCCC1)n2CC(O)COc1ccccc1 (stereo not drawn) | -0.0131
CCOc1ccccc1C1CC(=O)NC2=C1C(=O)CC(C)(C)C2 (stereo not drawn) | 4.62
CCOCCCn1c(SCC(=O)Nc2cccc(OC)c2)nc2ccccc2c1=O | -10.6
O=C(Nc1cccc(S(=O)(=O)Nc2ccc(Cl)cc2)c1)c1ccccn1.O=C(O)C(=O)O | 3.5
CCN(c1ccc(NS(=O)(=O)c2cc(Cl)ccc2Cl)cc1)C(C)C | 1.15
O=c1c2ccccc2nc(CN2CCCCCC2)n1-c1ccc(F)cc1 | -2.58
CN(C)c1ccc(Nc2nc(N)c([N+](=O)[O-])c(N3CCOCC3)n2)cc1 | 9.17
CC1CC(C)CN(C(=O)CN2C(=O)NC3(CCCCCCC3)C2=O)C1 (stereo not drawn) | 6.48
CCN1C(=O)N[C@@H](c2cccc(C(F)(F)F)c2)[C@H](C(C)=O)[C@H]1C | 9.75
NS(=O)(=O)c1ccc(CCNC(=O)c2ccc(S(=O)(=O)N3CCCCC3)cc2)cc1 | 9.86
COc1ccc(-c2cc3ccc(OCc4nn[nH]n4)cc3oc2=O)cc1OC | -13.8
CN(CC(=O)Nc1c(Cl)cccc1Cl)C(=O)C1=COCCO1 | 11.6
O=C(NCc1ccccn1)c1cc(-c2ccccc2)on1 | 13.3
Cc1ccc2nc(-c3cc(-c4ccccc4)no3)cn2c1 | 8.64
O=C(O)Cn1nnnc1SCC(=O)Nc1ccc(OC(F)(F)F)cc1 | 8.73
O=C(CNC1C(=O)Nc2ccccc21)Sc1ccccc1 (stereo not drawn) | 18.6
O=C(NC1=NCCS1)c1cc(-c2cccc(Br)c2)nc2ccccc12 | 10.1
COCCN(C(=O)COC(=O)c1ccc(Cl)s1)c1c(N)n(Cc2ccccc2)c(=O)[nH]c1=O | 13
CC(=O)CCN1C(=O)NC2(CCCc3ccccc32)C1=O (stereo not drawn) | 9.71
CCCCCCSc1ccc([C@@H]2[C@H]3C(=O)N(CC)C(=O)[C@H]3[C@]3(C(=O)OC)CCCN23)cc1.O=C(O)C(F)(F)F | 6.41
CC(=O)N1CCc2ccc(S(=O)(=O)N3CC(C)OC(C)C3)cc21 (stereo not drawn) | 16.6
CCn1c(C)nc2cc(C(=O)N/N=C(\C)c3ccc(N4CCOCC4)cc3)ccc21 | 12.9
CC[C@H](C)[C@@H](C(=O)N1CCNCC1)n1cc([C@@H](N)CC(C)C)nn1.Cl | 14.1
